In patent US12138303B2, “Staphylococcus pseudintermedius virulence factor compositions” (UNIVERSITY OF TENNESSEE RESEARCH FOUNDATION, priority 2017, dated 2024):

Columns and labels:
clinically normal dogs = assay: Antibody response of dogs injected with SpsQ-M (ELISA of sera); format: in vivo, dog; details: 100 μg subcutaneous, three weekly injections; sera days −7, 8, 15, 29; versus pre-injection sera
Procedure: Recombinant SpsQ-M (SEQ ID NO:2) at 100 μg/0.5 cc in phosphate buffered saline (PBS) (pH 7.2) was injected in the lateral thorax by the subcutaneous route, into three clinically normal dogs. Injections were given once every 7 days for a total of three injections with a control dog receiving PBS (pH 7.2) only. Blood (6 cc) was collected from a jugular vein using a 20 g needle and 12 cc syringe 4 times, on days −7, 8, 15 and 29. The collected blood was left undisturbed at room temperature for 30 min followed by centrifugation at 2,000×g for 10 min in a refrigerated centrifuge.
To detect a specific antibody response against SpsQ-M in injected dogs, recombinant S. pseudintermedius proteins and commercial SpA were coated on ELISA plates as previously described and incubated with two-fold serially diluted serum from injected dogs (1/1000-1/32000). Bound IgG was detected using HRP-goat anti-dog IgG-heavy and light chain (Bethyl Laboratories, Inc., USA Cat No. A40-123-1) with serum from uninjected dogs used as negative controls. The experiment was run in duplicate and a p-value of <0.05 was considered significant.

dog IgG = assay: ELISA reactivity with dog serum / dog IgG; format: binding; details: serum 1:2000; compared to recombinant wild-type SpsQ and SpA
Procedure: To test the reactivity of serum from a dog with chronic pyoderma, S. aureus SpA and S. pseudintermedius SpsQ and SpsQ-M were coated on ELISA plates (Corning, USA Cat No. 3590) at 2 μg/ml in PBS. They were incubated with serum at a dilution of 1:2000. Bound IgG, IgM, and IgA were detected by HRP-goat anti-dog IgG-heavy and light chain (Bethyl Laboratories, Inc., USA Cat No. A40-123-1), HRP-goat anti-dog IgM μ chain (Bethyl Laboratories, Inc., USA Cat No. A40-116-2), HRP-goat anti-dog IgA (Bethyl Laboratories, Inc., USA Cat No. A40-104P) at a dilution of 1:8000 in PBS-T. Dog whole IgG molecule (Rockland, USA Cat No. 004-0102-1000) was used for comparison to measure non-specific IgG binding.

Q: With “SpsQ-M: attenuated non-toxigenic S. pseudintermedius protein A with Q5K, Q6K, D32A, D33A in each Ig binding domain” as the substance, how does the “antibodies against S. pseudintermedius SpsQ-M and SpsQ in sera of injected dogs” value (clinically normal dogs) read?
A: detected on day 15 and reached the highest level on day 29

Q: And the “reactivity of sera from a dog with a history of chronic pyoderma” value (dog IgG)?
A: significantly lower reactivity
